Changes are numbered by the printed parent chain; changes in the protein carry UniProt numbers. This is one part of the list.
B1: CAGUCAC (DNA:RNA)
RNA: GGGAGACCGGAAUUCAGAUUGUCCCAGUCACUUAAAUCCCGUCGUAGCCACCA
DNA 1: CAATCTGAATTCCGGTCTCCC
DNA 2: TGGTGGCTACGACGGGATT
B2: CUUGCUA (DNA:RNA)
RNA: B1 RNA with A26U, G27U, U28G, A30U, C31A
DNA 1: CAATCTGAATTCCGGTCTCCC
DNA 2: TGGTGGCTACGACGGGATT
B3: UCGAGAU (DNA:RNA)
RNA: B1 RNA with C25U, A26C, U28A, C29G, C31U
DNA 1: CAATCTGAATTCCGGTCTCCC
DNA 2: TGGTGGCTACGACGGGATT
B4: ACGAUGC (DNA:RNA)
RNA: B1 RNA with C25A, A26C, U28A, C29U, A30G
DNA 1: CAATCTGAATTCCGGTCTCCC
DNA 2: TGGTGGCTACGACGGGATT
B5: CGAUUAU (DNA:RNA)
RNA: B1 RNA with A26G, G27A, C29U, C31U
DNA 1: CAATCTGAATTCCGGTCTCCC
DNA 2: TGGTGGCTACGACGGGATT
B6: GCGAUAA (DNA:RNA)
RNA: B1 RNA with C25G, A26C, U28A, C29U, C31A
DNA 1: CAATCTGAATTCCGGTCTCCC
DNA 2: TGGTGGCTACGACGGGATT
B7: UAAGGGG (DNA:RNA)
RNA: B1 RNA with C25U, G27A, U28G, C29G, A30G, C31G
DNA 1: CAATCTGAATTCCGGTCTCCC
DNA 2: TGGTGGCTACGACGGGATT
B8: CACACCU (DNA:RNA)
RNA: B1 RNA with G27C, U28A, A30C, C31U
DNA 1: CAATCTGAATTCCGGTCTCCC
DNA 2: TGGTGGCTACGACGGGATT
B9: UGCGGCU (DNA:RNA)
RNA: GGGAGACCGGAAUUCAGAUUGUCCUGCGGCUUUAAAUCCCGUCGUAGCCACCA
DNA 1: CAATCTGAATTCCGGTCTCCC
DNA 2: TGGTGGCTACGACGGGATT

molecular target: T1, RBFOX1 RRM (Homo sapiens, UniProt Q9NWB1 109-208); assay: EMSA; HiTS-Eq, 1 nM pool, 10 min; buffer printed only for the single-RNA assays: 10 mM Tris pH 7.5, 150 mM NaCl, 3.4 mM EDTA, 0.001% NP-40, 30 C; details: tags: His6 N-terminal (pET28a); label: 5' 32P
T1 sequence: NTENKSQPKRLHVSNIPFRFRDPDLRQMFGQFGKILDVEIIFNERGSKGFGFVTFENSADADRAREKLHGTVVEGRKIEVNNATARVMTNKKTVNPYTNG
Summary of the method: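 Purified RbFox RRM, wild type or mutant, was incubated for 10 min in 50 µL with 1 nM of a 5′-radiolabelled RNA pool carrying 7 randomized nucleotides, whose flanks were annealed to DNA oligonucleotides, over a series of increasing protein concentrations. Unbound RNA was resolved on 8% native PAGE, cut out, reverse-transcribed, barcoded by PCR and sequenced on an Illumina HiSeq 2500. Relative association constants were derived from changes in read counts for each RNA species versus the control reaction and normalised to the cognate motif.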

| Binder | binding signal |
| --- | --- |
| B1 | 0.00386 KA relative to UGCAUGU |
| B2 | 0.00994 KA relative to UGCAUGU |
| B3 | 0.00776 KA relative to UGCAUGU |
| B4 | 0.00919 KA relative to UGCAUGU |
| B5 | 0.00621 KA relative to UGCAUGU |
| B6 | 0.00643 KA relative to UGCAUGU |
| B7 | 0.00588 KA relative to UGCAUGU |
| B8 | 0.00244 KA relative to UGCAUGU |
| B9 | 0.026 KA relative to UGCAUGU |

— PMC9911399, “Two distinct binding modes provide the RNA-binding protein RbFox with extraordinary sequence specificity”
